Key:
[1] = tested on: H508 tumor-bearing mouse model; experiment: Anti-tumor effect in H508 tumor-bearing mouse model; assay type: in vivo, BALB/c NUDE mice; conditions: H508, 10 mg/kg QWx2 intraperitoneal injection, day 55
Experimental: (§1) The mice were domesticated for 3 days after arrival, and then the study began.
Measurement of tumor volume: the maximum long axis (L) and maximum wide axis (W) of the tumor were measured using a vernier caliper, and the tumor volume was calculated as follows: V=L×W^2/2. Body weight was measured using an electronic balance. Table 1. Experimental design

[2] = tested on: ASPC1 tumor-bearing mouse model; experiment: Anti-tumor effect in ASPC1 tumor-bearing mouse model; assay type: in vivo, BALB/c-NUDE mice; conditions: ASPC1, 10 mg/kg QWx3 intraperitoneal injection, day 28
Experimental: Measurement of tumor volume: the maximum long axis (L) and maximum wide axis (W) of the tumor were measured using a vernier caliper, and the tumor volume was calculated as follows: V=L×W^2/2. Body weight was measured using an electronic balance. Table 7. Experimental design

human EGFR = human EGFR (Homo sapiens, UniProt P00533); experiment: ELISA detection of affinity; assay type: binding; conditions: relative to SIB001-DXd
[3] = tested on: SW620 tumor-bearing mouse model; experiment: Anti-tumor effect in SW620 tumor-bearing mouse model; assay type: in vivo, BALB/c-NUDE mice; conditions: SW620, 10 mg/kg QWx3 intraperitoneal injection, day 42
Experimental: as §1
Measurement of tumor volume: the maximum long axis (L) and maximum wide axis (W) of the tumor were measured using a vernier caliper, and the tumor volume was calculated as follows: V=L×W^2/2. Body weight was measured using an electronic balance. Table 5. Experimental design

[4] = tested on: NCI-H1568 tumor-bearing mouse model; experiment: Anti-tumor effect in NCI-H1568 tumor-bearing mouse model; assay type: in vivo, BALB/c-NUDE mice; conditions: NCI-H1568, 10 mg/kg QWx3 intraperitoneal injection, day 30
Experimental: as §1
Measurement of tumor volume: the maximum long axis (L) and maximum wide axis (W) of the tumor were measured using a vernier caliper, and the tumor volume was calculated as follows: V=L×W^2/2. Body weight was measured using an electronic balance. […] Experimental design

[5] = tested on: NUGC-4 tumor-bearing mouse model; experiment: Anti-tumor effect in NUGC-4 tumor-bearing mouse model; assay type: in vivo, BALB/c-NUDE mice; conditions: NUGC-4, 10 mg/kg single dose intraperitoneal injection, day 32
From the text: In the present experiment, the BALB/c NUDE mice inoculated with NUGC-4 cells were used for determining the anti-tumor effect of the EGFR/HER3-ADCs.
The female BALB/c-NUDE mice were purchased from Beijing Vital River Laboratory Animal Technology Co., Ltd, with the grade of SPF, the quality control department is Beijing Vital River Laboratory Animal Technology Co., Ltd, and the certificate number was NO.110011230103807533. The mice were domesticated for 3 days after arrival, and then the study began.
NUGC-4 cells were purchased from NIBIOHN (CAT #: JCRB0834) and routinely subcultured in strict accordance with the instructions for subsequent in vivo experiments. The cells were collected by centrifugation, resuspended in sterile PBS and adjusted to a cell density of 20×10^6 cells/ml. […]
Tumor volume of each mouse was measured 13 days after tumor cell inoculation, the mice with tumor volumes about 200 mm^3 were selected and grouped on average according to their tumor volume (7 mice per group). […] Administrations were conducted on day 13 after inoculation respectively, and the tumor volume and body weight of mice were monitored twice a week. […] Measurement of tumor volume: the maximum long axis (L) and maximum wide axis (W) of the tumor were measured using a vernier caliper, and the tumor volume was calculated as follows: V=L×W^2/2. Body weight was measured using an electronic balance. […]

[6] = tested on: human breast cancer cells MDA-MB-453; experiment: In vitro cell killing assay (CTG); assay type: cell-based; conditions: MDA-MB-453, relative to SIB001-DXd

B1: Duligo-LC1-NT3 (conjugate)
heavy: EVQLVESGGGLVQPGGSLRLSCAASGFTLSGDWIHWVRQAPGKGLEWVGEISAAGGYTDYADSVKGRFTISADTSKNTAYLQMNSLRAEDTAVYYCARESRVSFEAAMDYWGQGTLVTVSSASTKGPSVFPLAPSSKSTSGGTAALGCLVKDYFPEPVTVSWNSGALTSGVHTFPAVLQSSGLYSLSSVVTVPSSSLGTQTYICNVNHKPSNTKVDKKV[human IgG1 Fc with changes not shown]
light: DIQMTQSPSSLSASVGDRVTITCRASQNIATDVAWYQQKPGKAPKLLIYSASFLYSGVPSRFSGSGSGTDFTLTISSLQPEDFATYYCQQSEPEPYTFGQGTKVEIKGQPKAAPSVTLFPPSSEELQANKATLVCLISDFYPGAVTVAWKADSSPVKAGVCTTTPSCQSNNKYAASSYLSLTPEQWKSHRSYSCQVTHEGSTVEKTVAPTECS
[1]
  TGI: 147%
  Tumor volume: 44 mm^3
[2]
  TGI: 75%
  Tumor volume: 314 mm^3
Human EGFR
  decrease in Kd: approximately 2.5 fold
[3]
  TGI: 100%
  Tumor volume: 220 mm^3
[4]
  TGI: 81%
  Tumor volume: 332 mm^3
[5]
  TGI: 95%
  Tumor volume: 220 mm^3
[6]
  reduction in IC50: approximately 250 fold

— patent EP4810521A1, “ANTI-EGFR AND -HER3 BISPECIFIC ANTIBODY-DRUG CONJUGATE AND USE THEREOF” (priority 2023, dated 2025)
